Experimental data: PubChem BioAssay AID493208 (National Center for Advancing Translational Sciences (NCATS), 2011)
About 340 (0.77%) of roughly 44,000 compounds were called active. Not shown: some 5% with an inconclusive outcome. The call rests on the fitted dose curve; in most records, active means well fitted inhibition curve with a large enough effect; inconclusive means small, poorly fitted or top-dose-only effect; inactive means flat fitted curve, though single readings scatter. The list shows a part of the results.

experiment: Acumen qHTS Assay for Inhibitors of the mTORC1 Signaling Pathway in MEF (Tsc2-/-, p53-/-) Cells: Sytravon; conditions: phospho-rpS6 immunofluorescence/PI, 24 h; series mostly up to 38.3 µM; activity change, negative = inhibition: at the top concentration;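 further: plate controls were DMSO for no effect and rapamycin for full effect; nearly all actives have a fitted effect of over 50% in size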
Outline: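 Tsc2-/-, p53-/- MEFs (empty-vector stable line) in DMEM + 10% FBS were treated with compounds 24 h at 37 degree Celsius, fixed, and immunostained for phospho-rpS6 (Alexa-488) with propidium iodide counterstain. Laser-scanning cytometry gave % positive cells, normalized against 7.5 nM rapamycin and DMSO.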

Activity change, negative = inhibition, inactive:
CCOCCCNC(=O)CN1C(=O)c2cccnc2Sc2ccccc21 8.22%, CCCCNC(=O)CCCN1C(=O)CCn2nc(-c3cccn3C)cc21 -0.594%, Fc1ccccc1N1CCN(c2nnc(C(F)(F)F)c3nnn(Cc4ccccc4)c23)CC1 4.83%, O=C(Cn1c(SCCOc2ccccc2Cl)nc2ccccc21)N1CCOCC1 1.79%, COc1ccc2c(CNCc3ccco3)c(C(=O)O)n(Cc3ccc(F)cc3Cl)c2c1 -1.81%, CCc1ccc(NC(=O)CSc2nc(-c3ccccc3)no2)cc1 -5.76%, COc1ccc(CCNc2ncnc3c2nnn3C)cc1OC -7.78%, CN(C)S(=O)(=O)N(CC(=O)Nc1ccc(Br)cc1F)c1ccccc1 -7.97%, COc1ccccc1Cn1ccn(CC(=O)Nc2c(C)cc(C)cc2C)c(=O)c1=O 7.74%, CC(C)C(=O)NC1CC(=O)N(c2ccc3c(c2)OCCO3)C1 (configuration not stated) -0.0162%, Cc1nnc(N2CCN(c3ccc(Cl)cc3)CC2)c2c1nnn2Cc1ccc(F)cc1 2.83%, COc1cccc(C(c2sc3nc(-c4ccco4)nn3c2O)N2CCCC2)c1 (configuration not stated) 2.64%, Cc1ccc(-n2nc(C)c3c(C)cc(=O)n(CC(=O)Nc4ccc(C(C)C)cc4)c32)cc1 16.3%, COc1ccc(NC(=O)c2c(NCc3cccs3)sc3c2CCCCC3)cc1 -8.92%, CN(C1CCCCC1)S(=O)(=O)c1ccc(F)c(C(=O)Nc2ccc(C(F)(F)F)cc2)c1 9.78%, Cc1c(C(=O)Nc2cccc(F)c2)sc2nc(-c3cc4ccccc4oc3=O)[nH]c(=O)c12 5.37%, CC1CCCCN1C(=O)c1ccc2c(c1)N(Cc1ccc(Cl)cc1)C(=O)c1ccccc1S2=O (configuration not stated) -0.29%, COc1cc(OC)cc(C(=O)NCCc2csc(-c3cccc(C)c3)n2)c1 -29.9%, CCc1ccc(NC(=O)C(=O)NCCc2sc(-c3ccc(OC)c(OC)c3)nc2C)cc1 -0.0275%, O=C(NCc1ccccc1Cl)c1ccc2c(c1)N(Cc1ccccc1)C(=O)c1ccccc1S2 0%, CCOC(=O)c1[nH]c2ccccc2c1NC(=O)c1c(F)cccc1F -27.3%, CCOC(=O)c1sc2ncn(CC(=O)Nc3cccc(C)c3)c(=O)c2c1C -27.2%, COc1cccc(OCCCn2c(-c3ccc(Cl)cc3)nc3ccccc3c2=O)c1 0.0932%, CCc1cccc(NC(=O)c2cc(-c3ccccc3)n[nH]2)c1 -6.38%, O=C(Nc1cccc(Cl)c1)C1CCN(c2nc3ccccc3nc2C(F)(F)F)CC1 5.08%, CCCCNC(=O)c1cnc2sc(N3CCCCC3)nn2c1=O 6.59%, Cc1ccccc1Cn1c(=O)n(Cc2ccco2)c(=O)c2oc3ccccc3c21 3.45%, O=C(c1ccc2c(c1)CCN2S(=O)(=O)c1ccc(Cl)cc1)N1CCN(c2ccccc2F)CC1 1.82%, CN(C)c1ccc(CN2CCc3nc(N4CCN(c5ccccn5)CC4)ncc3C2)cc1 0.231%, Cc1c(F)cccc1NS(=O)(=O)c1cccs1 1%, Cc1cc(OC(C)C(=O)N2CCN(CCc3ccccn3)CC2)ccc1Cl (configuration not stated) -2.42%, Cc1nc2c(c(SCC(=O)Nc3ccccc3C(F)(F)F)n1)CCC2 -15.2%, CC(C)N(Cc1ccccc1)C(=O)c1cc2ccc3cccnc3c2[nH]1 0.561%, CCOc1ccccc1N1CC(c2nc3ccccc3n2CCCOc2ccccc2)CC1=O (configuration not stated) -2.09%, CCC(CC)C(=O)Nc1ccc(OCc2cc(=O)n3ccc(C)cc3n2)cc1 0%, CCOC(=O)C1CCN(C(=O)c2nn(-c3ccc(C)cc3)c(=O)c3c2c2ccccc2n3C)CC1 -6.29%, Cc1ccccc1Nc1nnc(-c2ccc(C)c(S(=O)(=O)N3CCN(C)CC3)c2)c2ccccc12 -13.1%, COc1ccc(S(=O)(=O)NC(C)C)cc1-n1cnnn1 -1.26%, O=C(Nc1ccc(OC(F)(F)F)cc1)C1CCCN(S(=O)(=O)c2ccc(Br)s2)C1 (configuration not stated) -1.45%, O=C(Cc1csc2ccccc12)NCc1ccc(F)cc1 -0.622%, COc1ccc(Br)cc1CNC(=O)CN1C(=O)CCCc2ccccc21 4.73%, CC(C)(C)c1ccc(C(=O)Nc2nc3nc(-c4ccccc4)cc(=O)n3[nH]2)cc1 -1.3%, Cc1ccc(NC(=O)Cn2c(SCc3cccc(F)c3)nc3ccncc32)c(C)c1 -0.865%, C#CC(C)(CC)NC(=O)Cn1nnc(-c2ccc(OCc3ccccc3Cl)cc2)n1 (configuration not stated) -0.268%, COc1ccc(C(=O)NCC(c2cccnc2)N2CCN(c3ccccc3OC)CC2)cc1 (configuration not stated) -1.73%, COc1cccc(NC(c2nnc(-c3ccccc3)o2)c2ccc(F)cc2Cl)c1 (configuration not stated) -2.72%, COCCCNC(=O)C1CCCN(c2ncnc3onc(C)c23)C1 (configuration not stated) -13.9%, COc1ccc(CCNC(=O)c2ccc3c(Cl)c4c(nc3c2)CCCC4)cc1OC -12.1%, Cc1c(CCC(=O)NCc2ccc(F)cc2)c(=O)oc2cc(O)ccc12 -9.63%, CCCN(CCC)C(=O)c1c[nH]c2ccc(S(=O)(=O)N(C)c3ccc(OCC)cc3)cc2c1=O -2.18%, CCc1ccc(C(=O)c2cn(CC(=O)Nc3ccc4c(c3)OCCO4)c3ccc(CC)cc3c2=O)cc1 -9.91%, Cc1ccc2oc(C(=O)Nc3nc(-c4ccc(F)cc4)ns3)c(C)c2c1 3.03%, Cc1ccccc1OCC(=O)Nc1ccc(C(=O)OCc2cc(=O)n3c(C)csc3n2)cc1 0%, COc1cccc(NC(=O)CSC2=Nc3ccccc3C3=NC(CC(=O)NCc4cccs4)C(=O)N23)c1 (configuration not stated) -3.54%, COc1ccc(C2c3c(oc4cc(C)cc(C)c4c3=O)C(=O)N2Cc2ccco2)cc1OC (configuration not stated) 1.53%, Cc1cccc(N2CCN(C(=O)c3cc4c(=O)[nH]c5ccc(C)cc5c4s3)CC2C)c1 (configuration not stated) -6.65%, COc1ccc(CNC(=O)CSCc2cnn(-c3ccccc3)c2-n2cccc2)cc1OC -4.33%, CC(=O)N1CCN(c2nc3c(F)cc(F)cc3s2)CC1 0.104%, COc1ccc(Cn2c(CNC(=O)Cc3cccc([N+](=O)[O-])c3)nc3cccnc32)cc1 -5.26%, Cc1cc(C)cc(NC(=O)c2sc3nc[nH]c(=O)c3c2C)c1 -12.5%, CCOC(=O)Cn1c(=O)n(CC2CCCO2)c2nc(-c3ccccc3Cl)nc(C(N)=O)c21 (configuration not stated) -0.0481%, CCOC(=O)c1ccc(CN(Cc2ccc(OC)cc2)S(=O)(=O)c2cccc(C(F)(F)F)c2)cc1 3.08%, O=c1c(N2CCc3ccccc3C2)csc2ccc(F)cc12 3.93%, CCOc1ccc(N(CC)C(=O)c2noc3c2COc2ccc(C)cc2-3)cc1 -7.11%, COc1ccccc1C(=O)Nc1c(C(=O)c2ccccc2)oc2ccccc12 -2.43%, CC1=C(C(=O)Nc2ccccc2C)C(c2cccs2)n2nc(SCc3cc(C)ccc3C)nc2N1 (configuration not stated) -6.46%, CCOc1ccccc1NC(=O)C1=C(C)Nc2ncnn2C1c1sccc1C (configuration not stated) 0%, Cc1ccc(CNC(=O)c2c(-c3ccc(Br)cc3)noc2C)o1 0.882%, O=C(CCCn1c(=O)c2cccn2c2cccnc21)Nc1ccccc1C(F)(F)F 3.52%, Cc1c(C(=O)NCc2ccccc2)oc2ccc(S(=O)(=O)N3CCC(C)CC3)cc12 -20.6%, O=C(NCCc1ccc(Cl)cc1)C(=O)NCC(c1ccco1)S(=O)(=O)c1ccccc1 (configuration not stated) -5.58%, Cc1ccc(NC(=O)C(=O)NCC(c2cccnc2)N2CCN(C)CC2)cc1 (configuration not stated) -12%, CCn1c(CN2CCCCC2)nc2cc(NC(=O)COc3ccccc3C(C)(C)C)ccc21 -1.14%, Cc1coc2c1c(C)cc1oc(=O)c(CC(=O)NCCc3ccc(Cl)cc3)c(C)c12 -6.01%, CCn1c2c(c(=O)n3ncc(C(=O)Nc4ccc(C(=O)OC)cc4)c13)CN(Cc1ccc(OC)cc1)CC2 0.203%, COc1ccc(C)cc1NC(=O)c1ccc2nc(Cc3ccccc3)oc2c1 -16.1%, COc1ccc(CCNC(=O)c2c(O)nc3c(C)cccn3c2=O)cc1OC -26.5%, COc1ccc(NC(=O)c2c(N)c(C(=O)c3ccc(OC)cc3)n3ccccc23)cc1 3.48%, COc1ccc(N2CCN(C(=O)c3cc(-c4ccc(C)c(F)c4)on3)CC2)cc1 -5.34%, Cc1c(C(=O)NCCc2ccc(Cl)cc2)cccc1-n1cnc2cccnc21 -9.06%, COc1ccc(N2CCN(C(=O)CSc3nc4ccccc4nc3Cc3ccc(Cl)cc3)CC2)cc1 -29.1%, CCOC(=O)N1CCc2c(sc3c2c(=O)n(-c2ccc(CC)cc2)c(=O)n3Cc2cccc(Cl)c2)C1 5.11%, Cc1ccc(C)c(N2CCN(C(=O)C3CCC(CNS(=O)(=O)c4cccs4)CC3)CC2)c1 (configuration not stated) -8.29%, CCC1CN(C(=O)N2CCC(C(=O)NCCc3ccc(OC)c(OC)c3)CC2)c2ccccc2O1 (configuration not stated) 8.53%, Cc1ccc(CNC(=O)CSc2c(C)cnc3c2c(=O)n(C)c(=O)n3C)cc1 0.17%, Cc1ccc(NC(=O)CN2C(=O)C(c3ccc(F)cc3)=NC23CCCCCC3)c(C)c1 -0.548%, CCCCOc1ccc(C2C(=O)N(C3CCCCC3)CC(=O)N2C2CCCCC2)cc1 (configuration not stated) 6.33%, Cc1ccc(NC(=O)C2CCN(S(=O)(=O)c3cccc4nsnc34)CC2)cc1 -0.205%, CCn1cc(C(=O)OCC(=O)Nc2cc(Cl)ccc2C)c(=O)c2ccc(C)nc21 2.83%, Cc1ccc(C)c(N2CCN(C(=O)c3cc4cc5ccc(C)cc5nc4o3)CC2)c1 -3.2%, CC1CCN(S(=O)(=O)c2ccc3nc(NCc4ccc(N(C)C)cc4)ccc3c2)CC1 -20%, CCc1cccc(NC(=O)Cn2c(=O)n(CCCCCC(=O)NCc3ccc(F)cc3)c(=O)c3sccc32)c1 -13.4%, COc1ccc(C2C=C(c3ccccc3)Nc3nc(NC(C)=O)nn32)cc1 (configuration not stated) -0.873%, CCn1nc(C)c2c(-c3ccccc3)cc(=O)n(C(C)C(=O)Nc3ccc(OC)c(OC)c3)c21 (configuration not stated) 4.59%, Cc1cccc(NC(=O)Nc2cccs2)c1C -2.25%, CCOC(=O)c1ccccc1NC(=O)CN(c1ccccc1)S(=O)(=O)c1ccc(OCC)cc1 -14.4%, CCCCCCc1c(C)c2c(cc(C)c3c(C)coc32)oc1=O -8.98%
